Assay results reported in PubChem BioAssay AID686971 (National Center for Advancing Translational Sciences (NCATS), 2013).
The campaign covered roughly 360,000 compounds. About 7,500 (2.1%) were called active. Inconclusive means that the source gave no clear call. Such entries were picked first, then a sample of the others. Calls come from the whole dose curve; as a rule, active = well fitted cell-killing curve with a large enough effect; inconclusive = small, poorly fitted or top-dose-only effect, or effect the other way, or another doubt; inactive = no such curve, though single readings can be large or run the other way. No potency is given beside an inconclusive call; the fits are too rough.

Experiment: qHTS for induction of synthetic lethality in tumor cells producing 2HG: qHTS for the HT-1080-IDH1KD cell line;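 for activity, negative = toxicity: 0% = DMSO wells and -100% = cell-free medium wells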
Details: HT-1080 IDH1 knockdown viability, ATP luminescence, 48 h; activity, negative = toxicity: at 46.1 µM (top of the series) unless noted
Summary of the method: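 Cytotoxicity counter-line: IDH1KD HT-1080, 48 h, CellTiter-Glo. Curves classed by r2, magnitude and activity.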
Potency is the fitted concentration of half-maximal effect; tags give direction and shape of the fitted curve.

| SMILES | Potency | activity, negative = toxicity |
| --- | --- | --- |
| COc1ccc(-n2c3c(cc(C(=O)NNc4ccccc4)c2=O)C(=O)CC(C)(C)C3)cc1 | inconclusive [cytotoxic, single point] | – |
| Nc1nc(Nc2ccccc2)sc1C(=O)c1ccccc1 | inconclusive [cytotoxic, partial curve] | – |
| c1ccc(CN2CCC(Nc3nc(-c4cccs4)nc4ccccc34)CC2)cc1 | inconclusive [cytotoxic, single point] | – |
| CN(CC(=O)Nc1cccc(F)c1)C(=O)c1ccc(S(=O)(=O)N2CCCC2)cc1 | – | inactive: 0.702% |
| O=[N+]([O-])c1ccc(NN=Cc2cccc([N+](=O)[O-])c2)cc1 | inconclusive [cytotoxic, single point] | – |
| CCc1ccc(/C=N/NC(=O)c2cc(C)on2)s1 | inconclusive [cytotoxic, single point] | – |
| COc1ccc(CC(=O)Nc2nc(OCC(F)(F)F)cnc2-c2ccc(Cl)cc2Cl)cc1 | inconclusive [cytotoxic, single point] | – |
| CCN(CC)c1ccc(/C=N/N2C(C)CCCC2C)c(O)c1 (configuration not stated) | – | inactive: 0.615% |
| O=C(NCc1ccccn1)c1ccc2c(=O)n3nc(Nc4ccccc4)sc3nc2c1 | inconclusive [cytotoxic, full curve] | – |
| CCN(c1cccc(C)c1)S(=O)(=O)c1ccc2c(c1)N(C(C)=O)CCS2 | – | inactive: -4.03% |
| O=C(c1ccc(Sc2cccc(Cl)c2)c([N+](=O)[O-])c1)N1CCN(c2ccccn2)CC1 | – | inactive: -19.7% |
| CCCCCCCCN1C(=O)[C@H](CC(=O)N2CCCCC2)C[C@@]2(C(=O)OC)CC(C)(C)CC=C12 | inconclusive [cytotoxic, single point] | – |
| Cc1ccc(S(=O)(=O)N2CCN(c3nc(-n4ccnc4)nc4ccccc34)CC2)cc1 | – | inactive: 18.9% |
| Cc1cccc(COCC(Cc2ccccc2)N2CCN(C(=O)c3cccc(Cl)c3)CCC2=O)c1 (configuration not stated) | – | inactive: -20.3% |
| Cc1ccc(-c2noc(CN(C)C(=O)Nc3ccc(F)cc3)n2)cc1 | – | inactive: -8.73% |
| O=S(=O)(NC1CCCCC1Oc1ccccc1)c1ccc(Cl)cc1 (configuration not stated) | inconclusive [cytotoxic, single point] | – |
| C[C@@]12C(=O)Nc3cc(Cl)ccc3C(=O)N1[C@H]1c3cc(Br)ccc3OC[C@@H]1[C@@H]2c1ccccc1 | inconclusive [cytotoxic, partial curve] | – |
| Cc1noc(C)c1CSCC(=O)N(C)CC(=O)Nc1ccccc1Cl | – | inactive: 7.04% |
| Cc1ccc(NC(C)C(=O)N/N=C/c2ccc([N+](=O)[O-])s2)cc1 (configuration not stated) | inconclusive [cytotoxic, partial curve] | – |
| COc1cc(C#N)ccc1OCC(=O)c1ccc2c(c1)OCCO2 | inconclusive [cytotoxic, full curve, poor fit] | – |
| CCOC(=O)c1c(NC(=O)CSc2ncn[nH]2)sc(C)c1C | inconclusive [cytotoxic, single point] | – |
| CN(Cc1ccc(Cl)cc1Cl)C(=O)c1cccc(S(=O)(=O)NCc2ccccc2)c1 | – | inactive: -6.46% |
| CCCCn1c(SC(C)C(N)=O)nc2cc(C(=O)OC)ccc2c1=O (configuration not stated) | inconclusive [cytotoxic, single point] | – |
| Cc1ccc(C)c(NS(=O)(=O)c2cc(C(=O)N3CCCC3)ccc2Cl)c1 | inconclusive [cytotoxic, single point] | – |

| SMILES | Potency | activity, negative = toxicity |
| --- | --- | --- |
| O=C(Nc1ccc(C(=O)Nc2ccccc2Cl)cc1)c1cccnc1 | active: 5.8 µM | – |
| CCOc1ccc(-c2cc(C(=O)O)c3ccccc3n2)cc1 | active: 11.2 µM | – |
| Cc1c(C)c(C)c2[nH]c(=S)[nH]c2c1C | – | inconclusive: -11.4% [cytotoxic] |
| NC(=O)COC(=O)c1ccc(-c2ccccc2)cc1 | – | inactive: -2.7% |
| CCOc1cc2nc(-c3ccc(OC)c(OC)c3)nc(NCCCN3CCOCC3)c2cc1OC | inconclusive [cytotoxic, partial curve] | – |
| O=C(C1=C(c2ccccc2)C(=O)c2ccccc2C1=O)c1ccccc1 | active: 14.6 µM | – |
| Nc1cc2c(cc1Cl)-c1ccc([N+](=O)[O-])cc1C2=NO | – | inconclusive: 23.6% |
| COc1ccc(C(=O)N/N=C(\Cc2ncc[nH]2)c2ccccc2)cc1 | inconclusive [cytotoxic, full curve] | – |
| Cc1c(C(=O)C(=O)N2CC=C(c3ccccc3)CC2)c2ccccc2n1C | active: 2.31 µM | – |
| CCOC(=O)CNC(=O)COc1coc(CN2CCN(c3ccccc3)CC2)cc1=O | – | inactive: 2.17% |
| COc1ccccc1C/C(N)=N/OC(=O)/C=C/c1ccccc1 | inconclusive [cytotoxic, single point] | – |
| Cc1cc(C)cc(NC(=S)N2CC(C)OC(C)C2)c1 (configuration not stated) | – | inactive: 17.7% |
| CN(C)S(=O)(=O)c1cccc(C(=O)N(Cc2ccc(F)cc2)Cc2ccco2)c1 | – | inactive: -9.28% |
| CN(C)c1ccc(P(=O)(COc2ccc([N+](=O)[O-])cc2)c2ccc(N(C)C)cc2)cc1 | inconclusive [cytotoxic, partial curve] | – |
| CN(C)c1ccnc(Oc2ccc(Cl)cc2)c1C#N | inconclusive [cytotoxic, single point] | – |
| CC1Cc2cc(/C=C3/SC(N4CCC(C(N)=O)CC4)=NC3=O)ccc2O1 (configuration not stated) | inconclusive [cytotoxic, single point] | – |
| COc1ccccc1-c1nc(SCC(=O)Nc2ccccc2F)n[nH]1 | inconclusive [cytotoxic, single point] | – |
| N#Cc1ccccc1Cn1c(=O)n(Cc2ccc(C(=O)NCc3ccco3)cc2)c(=O)c2ccccc21 | inconclusive [cytotoxic, partial curve, poor fit] | – |
| COc1ccccc1NC(=O)Cn1c(C)cc(=O)c2cccc(OC)c21 | inconclusive [cytotoxic, partial curve, poor fit] | – |
| CCOCCOc1nc2c(c(=O)n(C)c(=O)n2C)n1Cc1ccc(C)cc1 | – | inactive: -0.479% |
| COC1=Nc2ccccc2N2CCN=C12 | inconclusive [cytotoxic, single point] | – |
| Cn1nc(C(F)(F)F)c2cc(C(=O)Nc3ccc(C(F)(F)F)cc3)sc21 | inconclusive [cytotoxic, single point] | – |
| Clc1cccc(COn2c(-c3ccc(Cl)cc3Cl)nc3ncccc32)c1 | inconclusive [cytotoxic, single point] | – |
| COc1ccccc1-c1nnc(NC(=O)c2ccc(S(=O)(=O)N(C)Cc3ccccc3)cc2)o1 | inconclusive [cytotoxic, partial curve] | – |

| SMILES | Potency | activity, negative = toxicity |
| --- | --- | --- |
| COC(=O)Cn1c(=NC(=O)c2ccc(OC)c(OC)c2)sc2cc(OC)ccc21 | inconclusive [cytotoxic, partial curve] | – |
| COc1ccc(-c2ccnc3nc(Sc4ncc(C(F)(F)F)cc4Cl)nn23)cc1 | inconclusive [cytotoxic, single point] | – |
| C(=N\N1CCN(Cc2ccccc2)CC1)/c1ccccc1 | – | inactive: 10.9% |
| Nc1ccc(-c2nc3cc(N)ccc3o2)cc1 | – | inactive: -3.47% |
| CC1(C)CC(=O)C(/C=N/n2c(C(F)(F)F)nc3ccccc3c2=O)=C(O)C1 | inconclusive [cytotoxic, single point] | – |
| Cc1c(Cl)cccc1NC(=S)NCCC(C)C | inconclusive [cytotoxic, single point] | – |
| CCOc1ccc(C(=O)n2cc(C(=O)OC)c3ccccc32)cc1 | – | inconclusive: -30.5% [cytotoxic] |
| COCCNC(=O)C1(C)Cc2c(-c3cccc(C(F)(F)F)c3)ccnc2O1 (configuration not stated) | active: 20.6 µM | – |
| CN(C)c1ccc(/C=N/n2c(-c3cccnc3)n[nH]c2=S)cc1 | – | inconclusive: 29.1% |
| Cc1cc(Cl)ccc1C(O)c1ncc(-c2ccc(Cl)cc2)[nH]1 (configuration not stated) | inconclusive [cytotoxic, partial curve] | – |
| COc1ccc(C(=O)Nc2cccc3c2CCCC3)cc1OC | – | inactive: -5.91% |
| COc1ccc(S(=O)(=O)N2CCOCC2)cc1NC(=O)CCNC(=O)c1ccc([N+](=O)[O-])cc1 | active: 5.8 µM | – |
| COc1ccc(Cn2c(C3CC3)nc3ccc(NC(=O)c4ccco4)cc3c2=O)cc1 | inconclusive [cytotoxic, single point] | – |
| CC(C)CC(=O)N(Cc1ccc(F)cc1)C1CCS(=O)(=O)C1 (configuration not stated) | inconclusive [rising, single point] | – |
| O=C(O)COc1ccc(C(NC(=O)c2c(F)cccc2F)NC(=O)c2c(F)cccc2F)cc1 | – | inactive: 8.72% |
| Cc1cccc(C)c1NC(=O)C(CCc1ccccc1)n1c(=O)c(-c2ccccc2)nc2ccccc21 (configuration not stated) | inconclusive [cytotoxic, single point] | – |
| CC1N(C)c2cc(NC(=O)c3ccco3)ccc2C1(C)C (configuration not stated) | inconclusive [cytotoxic, single point] | – |
| O=C1/C(=C\c2ccc([N+](=O)[O-])cc2)CCc2ccccc21 | – | inactive: -1.62% |
| CCCCC(=O)NC(=S)Nc1nnn(CCC)n1 | inconclusive [cytotoxic, single point] | – |
| COc1cccc(C(O)c2nc(-c3cncnc3)cs2)c1 (configuration not stated) | – | inactive: 0% |
| O=C1C=C(c2cccs2)C[C@H](c2ccccc2)[C@H]1n1nnc([N+](=O)[O-])n1 | active: 2.91 µM | – |
| CN(C(=O)c1ccc(OC2CCN(C(=O)c3cccnc3)CC2)cc1)C1CCCCC1 | – | inactive: 4.01% |
| CCN(CC)c1ccc(N=C2C(=O)Nc3ccccc32)cc1 | active: 20.6 µM | – |
| CC(C)(C)OC(=O)N1CCN(C(c2ccnc3ccccc23)c2nnnn2-c2ccc3c(c2)OCCO3)CC1 (configuration not stated) | inconclusive [cytotoxic, partial curve] | – |
